Assay results published in PubChem BioAssay AID720647 (Broad Institute, 2013).
Out of some 380,000 compounds screened, about 1,300 (0.34%) were called active. The shares of active, inactive and inconclusive entries below differ from those in the screen.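 Rule for the calls: active = drop in luminescence signal, shown as inhibition above about 50% in the replicate tests (limit read from the data, passing the limit was not always enough); inconclusive = probably only some replicates passing the limit; inactive = the rest.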

Tested on: Drosophila bursicon receptor LGR2 (rickets)
Test: inhibitors of bursicon-induced LGR2 CRE-luciferase signal, primary screen, cell-based, HEK293, CRE-luciferase reporter, bursicon stimulation (AID 720647);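 note: agonist challenge used bursicon conditioned medium at about half maximal strength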
Settings: bursicon-stimulated, 4 h, at 9.99 µM, stronger effect = higher value

SMILES	inhibition
COc1ccc(-c2nn(-c3ccccc3)cc2/C=C(\C#N)C(N)=O)cc1[N+](=O)[O-]	inactive: 19.8%
CCC(C)Sc1cccc(-c2nc3ccc(C)cn3c2NCc2ccccc2)c1 (configuration not stated)	inconclusive: -6.99%
CC(=O)Oc1ccc(/C=C2/CCc3ccccc3C2=O)cc1	active: 55.1%
CCN(CC)S(=O)(=O)c1cc(C(=O)OCC(=O)Nc2ccc(-c3nc4ccc(C)cc4s3)cc2)ccc1F	inconclusive: 76.6%
COc1ccc(O)c(C(=O)CC(=O)c2ccc(F)cc2)c1	active: 74.6%
CCN(CC)CCC(=O)N1C/C(=C/c2ccccc2)C(=O)/C(=C\c2ccccc2)C1	active: 92.2%
O=C(CSc1nc2ccccc2c(=O)n1-c1ccccc1)NCc1ccc2c(c1)OCO2	inactive: -0.092%
Cc1cccc(/C=C/C(=O)c2ccc([N+](=O)[O-])o2)c1	active: 101%
COc1ccc2c3c(n(C)c2c1)[C@@H](CO)N(Cc1ccccn1)CC31CN(C(=O)NC(C)C)C1	inactive: -9.02%
Cc1ccccc1N1CCN(Cc2ccc(Br)o2)CC1	inactive: 10.1%
c1ccc2nc(-c3nc4ccccc4o3)ccc2c1	active: 85.3%
CO[C@@H]1CC[C@@H]2CCN(C)C(=O)CC3(CCCCC3)CN(C)C(=O)c3cccc(C#N)c3OC[C@@H]1O2	inactive: -8.12%
CN(C)c1ccc(N=Nc2nc3ccccc3n2C)cc1	active: 103%
O=C(N/N=C/c1ccc2c(c1)OCO2)c1ccccn1	inconclusive: 56.1%
COCC(=O)N1CCC2(CC1)CN(C(=O)NC1CCCC1)[C@@H](CO)c1c2c2ccc(OC)cc2n1C	inactive: -4.05%
Cc1cc(S(=O)(=O)c2ccc([N+](=O)[O-])cn2)ccc1Br	inconclusive: 38.8%
CC1CCN(C(=O)c2cc3c(ccc4ccccc43)o2)CC1	inconclusive: 42.9%
CCOC(=O)Nc1ccc2c(c1)C(=NNC(N)=S)c1ccccc1-2	active: 82.9%
COc1ccc(OC)c(/C=N\NC(=O)c2ccc(-c3ccccc3)cc2)c1	inconclusive: 54.7%
C[C@H](CO)N1C[C@H](C)[C@H](CN(C)C(=O)Nc2cccc3ccccc23)OCCCC[C@H](C)Oc2ccc(NC(=O)c3ccccc3)cc2C1=O	inconclusive: 50.8%
COc1ccc(NC(=O)C2Cc3c(-c4cccc(C(N)=O)c4)ccnc3O2)cn1 (configuration not stated)	inactive: -2.36%
O=C(C[C@H]1C=C[C@@H](NC(=O)C2CCC2)[C@H](CO)O1)NCCCN1CCOCC1	inconclusive: -3.69%
COc1ccc(-n2nnnc2-c2nc3ccccc3s2)cc1	inconclusive: 58.8%
CCc1cc(-c2ccc3c(c2)COc2c4ccccc4nn2-3)on1	inconclusive: 45.4%
CCCCCCCCN1C(=O)[C@H](CC(=O)N2CCOCC2)C[C@@]2(C(=O)OC)CCCCC=C12	inconclusive: 49.5%
Cc1ccc(S(=O)(=O)/N=C(\CCl)N2CCOCC2)cc1	inactive: -4.22%

SMILES	inhibition
O=C(O)c1cccc(COc2ccc(CO)cc2Cl)c1	active: 100%
CC12CCC(O)CC1=CCC1C2CCC2(C)C3=NN=CC3CC12 (configuration not stated)	inconclusive: 15.2%
CCc1ccn2cc(-c3ccc4c(c3)OCO4)nc2c1	active: 97.3%
O=[N+]([O-])c1ccc(O)c2ncccc12	active: 101%
C[C@@H]1CN([C@H](C)CO)C(=O)CCCn2nncc2CO[C@H]1CN(C)C(=O)Nc1cccc2ccccc12	inconclusive: -5.43%
COc1cc(NC(=O)c2cccc3c(-c4cccnc4)coc23)cc(OC)c1OC	active: 85.6%
COc1ccc(S(=O)(=O)Nc2ccc3c(c2)C(=O)N([C@@H](C)CO)C[C@H](C)[C@@H](CN(C)C(=O)Nc2cccc4ccccc24)OCCCC[C@H](C)O3)cc1	inconclusive: 16.1%
O=C(c1ccc2c(c1)OCO2)N1CCN(c2ccc(C(F)(F)F)cn2)CC1	inactive: 3.29%
Cc1cccn2c(=O)c(/C=C(\C#N)C(N)=O)c(N3CCN(c4ccccc4)CC3)nc12	inactive: 1.39%
Cc1csc(CNc2ncnc3ccc(-c4ccoc4)cc23)c1	inconclusive: 46.4%
COc1cccc(-c2cc(C(=O)N3CCCCCC3)no2)c1	inconclusive: 51.5%
Cc1ccccc1N1C(=O)C2C3C=CC(CC3)C2C1=O (configuration not stated)	inconclusive: 60.1%
CC1(c2ccccc2Cl)NC(=O)N(CC(=O)N2CCc3ccccc32)C1=O (configuration not stated)	inconclusive: 8.53%
O=C(CSc1nnc(Cn2c(=O)sc3ccccc32)n1-c1ccccc1)NCc1ccco1	inactive: -7.4%
CC1CN(C(=O)c2cccc(S(=O)(=O)Nc3cc(Cl)ccc3Cl)c2)CC(C)O1 (configuration not stated)	inconclusive: 93.3%
COc1ccc(NC(=O)Nc2ccc3c(c2)CC(=O)N([C@@H](C)CO)C[C@@H](C)[C@H](CN(C)Cc2ccc(Oc4ccccc4)cc2)O3)cc1	inactive: 22.1%
CCCCCCN1C[C@@H](n2cc(-c3ccc(F)cc3)nn2)[C@H](O)C[C@@H]1c1ccc(Cl)cc1	inconclusive: 27.7%
O=C(Nc1ccccc1N1CCOCC1)c1ccc([N+](=O)[O-])s1	inactive: 10.1%
CC(C)NC(=O)C(=O)NNC(=O)CCc1ccccc1	inconclusive: 51.6%
CO[C@@H]1CN(C)C(=O)c2ccc(NC(=O)C3CC3)cc2OC[C@@H](C)NC[C@@H]1C	inconclusive: 55.3%
COc1ccc(C(=O)/C=C2/C(=O)Nc3ccccc32)c(OC)c1	inconclusive: 55.5%
C[C@H](O)C#Cc1ccc([C@H]2[C@H]3CN(CC4CC4)CCCCN3[C@H]2CO)cc1	inactive: 7.29%
C[C@H]1CN([C@@H](C)CO)C(=O)c2cc(NC(=O)Nc3ccc(C(F)(F)F)cc3)ccc2O[C@H]1CN(C)S(=O)(=O)c1cccs1	inconclusive: 30.7%
CCOC(=O)c1cnc(Nc2nc3ccccc3o2)nc1C	active: 82.2%
Oc1c(C=Nc2ccccc2)sc2ccccc12	inconclusive: 62.3%
C[C@@H]1CN([C@@H](C)CO)C(=O)c2cccc(NS(=O)(=O)c3ccccc3)c2O[C@@H]1CN(C)S(=O)(=O)c1cccs1	inactive: -6.84%
